The text below walks through data of PubChem BioAssay AID1963576 (National Center for Advancing Translational Sciences (NCATS), 2024).

In all, about 46,000 compounds went through this assay and about 60 (0.1%) were called active. Inconclusive results (about 3%) are left out. Calls follow the shape of the dose curve; as a rule, active = well fitted inhibition curve with a large enough effect; inconclusive = small, poorly fitted or top-dose-only effect; inactive = no such curve, though single readings can be large or run the other way. Some of the results follow.

The test in a line: Primary qHTS assay for Inhibitors of ovarian cancer metastasis using an organotypic tumor microenvironment (TME) model. Also: nearly all actives have a fitted effect of over 65% in size.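 As to activity change, negative = inhibition: plate controls were DMSO wells for no effect and tomatine positive control wells for full effect.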 To be noted: SKOV3ip1-GFP adhesion/invasion on 3D omental model, fluorescence; series mostly up to 45.8 µM; activity change, negative = inhibition: at the top concentration. In short, it runs like this: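 A 3D layer of primary human omental fibroblasts, mesothelial cells, fibronectin and collagen I, grown 48 hr, received SKOV3ip1-GFP cells in serum-free medium plus compounds at 0.36-46 umol/L. After 2 hr RT and 16 hr 37 C, fixed adherent GFP cells were counted; normalized to DMSO and tomatine.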
As for `CC(C)c1ccc(NC(=O)Cn2nnc(C(=O)NCc3ccc(Cl)cc3)c2N)cc1`, the “activity change, negative = inhibition” value was inactive: -13%. Take `Cn1nc(C(=O)N2CCN(c3ccc(F)cc3)CC2)c2c1-c1ccccc1SC2`: the “activity change, negative = inhibition” value was inactive: 1.77%. On to `CC1CCCN(S(=O)(=O)c2cc3c4c(c2)CC(=O)N4CCC3)C1` (centres undefined), for which the “activity change, negative = inhibition” value is inactive: 7.87%.

`COc1ccc(CCNC(=O)c2cn(C)c3ccc(S(=O)(=O)N(C)C)cc3c2=O)cc1OC`: the “activity change, negative = inhibition” value was inactive: 4.74%. As for `CCS(=O)(=O)c1nc(S(=O)(=O)c2ccc(C)cc2)c(NC)s1`, the “activity change, negative = inhibition” value was inactive: -1.69%.

As for `COc1cccc(CNCCCSc2nnnn2C)c1OC`, the “activity change, negative = inhibition” value is inactive: -9.1%. For `CC1CCCCN1C(=O)CCS(=O)(=O)c1cc2c(cc1Cl)NC(=O)CO2` (centres undefined), the “activity change, negative = inhibition” value was inactive: -1.6%. Same read-out and setting: to `COc1ccc(NC(=O)CCc2nnc3n(Cc4ccc(C)cc4)c(=O)c4ccccc4n23)cc1` belongs inactive: -7.51%. Regarding `CCc1ccccc1NC(=O)Cn1ccn(Cc2ccccc2)c(=O)c1=O`, the “activity change, negative = inhibition” value was inactive: 1.06%. For the compound `CC(=O)Nc1c(C)nn(-c2ccccc2)c1N1CCC(C(=O)Nc2ccccc2F)CC1`, the “activity change, negative = inhibition” value is inactive: -5.68%. Consider `COc1ccc(NS(=O)(=O)c2ccc3[nH]c4c(c3c2)CCCCC4)cc1`, for which the “activity change, negative = inhibition” value was inactive: 4.62%. Still for that read-out and setting: to `COc1ccc(NC(=O)c2ccco2)cc1NC(=O)c1c(OC)cccc1OC` belongs inactive: 7.95%; to `Cn1c2ccccc2c2cnn(CC(=O)NCCCN3CCN(c4ccccc4F)CC3)c(=O)c21`, inactive: -8.75%; to `COc1ccc(CCNC(=O)c2ccc3c(c2)ncn3-c2ccc(C(C)C)cc2)cc1OC`, inactive: -1.34%. As to `CC(=O)c1ccc(N2CCN(C(=O)Nc3ccc(C(C)C)cc3)CC2)cc1`, the “activity change, negative = inhibition” value is inactive: -26.6%. `O=C(Nc1ccccc1)N(Cc1cccc(Cl)c1)c1ccccn1`: the “activity change, negative = inhibition” value is inactive: 3%. On to `COc1ccc(Cn2c(CO)cnc2SCc2ccccc2C)cc1`, for which the “activity change, negative = inhibition” value was inactive: -3.37%. Same read-out and setting: for `Cc1c(C)n(Cc2ccc(-c3ccccc3C(=O)O)cc2)c2ccc(C(=O)N[C@@H](C)c3ccc([N+](=O)[O-])cc3)cc12` the value was inactive: 2.59%; for `COc1ccc(CNC(=O)Cc2c(C)c3cc4c(C)coc4c(C)c3oc2=O)cc1OC`, inactive: 4.59%.

With `CCOC(=O)c1c(S(=O)(=O)N2CCC(C(=O)Nc3ccc(F)cc3F)CC2)c(C)n(C)c1C`, the “activity change, negative = inhibition” value was inactive: -8.79%. `COc1ccccc1NC(=O)C1=C(C)Nc2ncnn2C1c1cccn1C` (centres undefined): the “activity change, negative = inhibition” value was inactive: -25.1%. Turning to `CCOc1ccc(CN2C(=O)c3ccccc3C2C(=O)NCCc2ccc(OC)c(OC)c2)cc1` (centres undefined), the “activity change, negative = inhibition” value was inactive: 12.2%.

For the compound `COc1ccc(-n2cc(C(=O)Oc3cc(C)cc(C)c3)c3ccccc3c2=O)cc1`, the call was inactive.

For `Cc1ccc(C)c(NC(=O)C2CCN(c3cc(C)nc4c(-c5ccc(Cl)cc5)c(C)nn34)CC2)c1`, the “activity change, negative = inhibition” value was inactive: 4.31%. Take `CCOc1ccc(CNS(=O)(=O)c2ccc3c(c2)CCCN3C(C)=O)cc1`: the “activity change, negative = inhibition” value is inactive: -2.66%. For the compound `CC1Cc2cc(S(=O)(=O)CCC(=O)NCc3ccccc3Cl)ccc2N1C(=O)C1CC1` (centres undefined), the “activity change, negative = inhibition” value is inactive: 3.8%.

Turning to `COc1ccccc1CC(=O)Nc1ccc2nc(Nc3cccc(Cl)c3)cc(C)c2c1`, the “activity change, negative = inhibition” value was inactive: -18.4%.

For the compound `Cc1ccc(-n2c(SCC(=O)c3ccccc3)nc3c([nH]c4ccccc43)c2=O)cc1`, the call was inactive. As to `CC(C)C(=O)Nc1ccc2nc(SCC(=O)N3CCc4ccccc43)sc2c1`, the compound was classed as inactive.

`CCC(=O)N1CCc2cc(S(=O)(=O)Nc3cc(C)ccc3OC)ccc21`: the outcome was inactive. `CCOc1ccccc1N1CCN(S(=O)(=O)c2ccc(C3CCCCC3)cc2)CC1`: the “activity change, negative = inhibition” value is inactive: -6.49%. As for `CC1CCN(C(=O)CSc2nc3ccccc3nc2Cc2ccccc2)CC1`, the compound was called inactive. For the compound `COc1cccc(NC(=O)Cn2c(=O)n(CCCCC(=O)NCc3ccccc3Cl)c(=O)c3ccccc32)c1`, the call was inactive.

On to `O=C(CSc1ncc(S(=O)(=O)c2ccc(Br)cc2)c(=O)[nH]1)Nc1ccc2c(c1)OCCO2`, for which the “activity change, negative = inhibition” value is inactive: -16.9%. Regarding `CCCCC(Sc1nc2cc3c(cc2c(=O)n1CCCC(=O)NCc1ccc2c(c1)OCO2)OCO3)C(=O)OCC` (centres undefined), the “activity change, negative = inhibition” value was inactive: -7.01%.

As to `COc1ccccc1CNC(=O)c1ccc2c(c1)N(Cc1c(F)cccc1Cl)C(=O)CS2`, the “activity change, negative = inhibition” value was inactive: -0.919%. `Cc1cc(C)cc(NC(=O)c2cc(S(=O)(=O)N3CCc4ccccc43)cn2C)c1`: the “activity change, negative = inhibition” value is inactive: -9.33%. Turning to `O=C(Nc1ccc2oc(-c3cccc(F)c3)nc2c1)c1ccc2ccccc2c1`, the “activity change, negative = inhibition” value is inactive: 1.68%. Turning to `CC(C)c1ccc(NC(=O)Cn2cc(S(=O)(=O)Cc3ccccc3Cl)c3ccccc32)cc1`, the “activity change, negative = inhibition” value was inactive: -29.1%.

In the case of `COc1ccc(Cn2ccnc2SCC(=O)Nc2nnc(C)s2)cc1`, the call was inactive. As for `Cc1nn2c(C)c(C(=O)NCc3ccc(OC(C)C)cc3)cnc2c1-c1ccc(F)cc1`, the outcome was inactive.

As to `Cc1ccc2nc(-c3ccc(Cl)s3)c(Nc3ccc4c(c3)OCCO4)n2c1`, the outcome was inactive. Regarding `COc1cccc(-n2c(SCc3ccc(F)cc3)nc3c([nH]c4ccccc43)c2=O)c1`, the “activity change, negative = inhibition” value was inactive: -5.02%.

Regarding `COC(=O)c1ccc(NC(=O)CN(C)S(=O)(=O)c2ccc(Br)s2)cc1`, the “activity change, negative = inhibition” value was inactive: -1.03%. Take `Cc1ccc(CNC(=O)C(C)n2nc(C)c3sc4ccccc4c3c2=O)cc1` (centres undefined): the “activity change, negative = inhibition” value is inactive: 7.55%.

Take `Cc1cc(C)c(NC(=O)Cn2c(=O)n(Cc3ccc(C(=O)NCc4ccc5c(c4)OCO5)cc3)c(=O)c3ccccc32)c(C)c1`: the “activity change, negative = inhibition” value was inactive: -7.4%.

As to `CC(=O)c1c(C)oc2c1cc(NS(=O)(=O)c1ccc(C(C)(C)C)cc1)c1ccccc12`, the “activity change, negative = inhibition” value was inactive: 6.21%.

In the case of `COc1ccc(NC(=O)Cn2c(=O)c3ccccc3n3nncc23)c(OC)c1`, the “activity change, negative = inhibition” value was inactive: -4.35%. Consider `COc1cccc(CNC(=O)CN2C(=O)COc3ccc(S(=O)(=O)N4CCOCC4)cc32)c1`, for which the “activity change, negative = inhibition” value is inactive: -5.79%.

Take `Cc1cccc(NC(=O)CN2C(=O)C(c3ccc(F)cc3)=NC23CCCCCC3)c1`: the call was inactive.

Take `CCn1c(=O)cc(OCC(=O)N2CCN(c3cccc(C)c3C)CC2)c2ccccc21`: the “activity change, negative = inhibition” value was inactive: -1.13%.

Turning to `Cc1ccc(CNC(=O)c2ccc(N3CCCC3)c(NC(=O)Nc3ccc(F)c(Cl)c3)c2)cc1`, the “activity change, negative = inhibition” value is inactive: 1.02%. On to `CCN(CCCNC(=O)c1nn(-c2ccc(C)cc2)c(=O)c2c1c1ccccc1n2C)c1cccc(C)c1`, for which the call was inactive. As to `CC(C)Cc1nn2c(=O)cc(COC(=O)c3ccc(NC(=O)C4CCCCC4)cc3)nc2s1`, the “activity change, negative = inhibition” value was inactive: -0.286%. Consider `COc1ccc(NC(=O)c2cc(S(=O)(=O)N3CCCC3)ccc2OC)cc1`, for which the “activity change, negative = inhibition” value is inactive: -22%. In the case of `COC(=O)c1ccccc1NC(=O)CN1C(=O)COc2ccc(Cl)cc21`, the “activity change, negative = inhibition” value is inactive: 0.939%.

Consider `COc1cccc(C(=O)Oc2c(Sc3ccc(C)cc3)c(C)nn2C(C)(C)C)c1OC`, for which the “activity change, negative = inhibition” value is inactive: -35.9%. On the same count and under the same terms, for `Cc1cccc(C(=O)N2CCc3cc(CNC(=O)CSc4ccccc4)ccc32)c1` the value was inactive: -0.68%; for `CCOc1ccc(NC(=O)c2cc(C)nc3c2c(C)nn3-c2ccc(C)cc2)cc1`, inactive: 0.0625%.
